The supplement of paper PMC3334620
Whole data set: some 33,000 sequences, median “E-score (-0.5 to 0.5)” near -0.035, cut for the highest 2% near 0.35. The list shows a part of the results.

target: T1, Pdr3 (UniProt P33200); assay: PBM E-score (8-mer binding enrichment) (E-score (-0.5 to 0.5)); higher = stronger / more preferred TF binding; most listed sequences are background and not binding sites; settings: protein concentration: 200 nM; construct: GST-full length
T1 sequence: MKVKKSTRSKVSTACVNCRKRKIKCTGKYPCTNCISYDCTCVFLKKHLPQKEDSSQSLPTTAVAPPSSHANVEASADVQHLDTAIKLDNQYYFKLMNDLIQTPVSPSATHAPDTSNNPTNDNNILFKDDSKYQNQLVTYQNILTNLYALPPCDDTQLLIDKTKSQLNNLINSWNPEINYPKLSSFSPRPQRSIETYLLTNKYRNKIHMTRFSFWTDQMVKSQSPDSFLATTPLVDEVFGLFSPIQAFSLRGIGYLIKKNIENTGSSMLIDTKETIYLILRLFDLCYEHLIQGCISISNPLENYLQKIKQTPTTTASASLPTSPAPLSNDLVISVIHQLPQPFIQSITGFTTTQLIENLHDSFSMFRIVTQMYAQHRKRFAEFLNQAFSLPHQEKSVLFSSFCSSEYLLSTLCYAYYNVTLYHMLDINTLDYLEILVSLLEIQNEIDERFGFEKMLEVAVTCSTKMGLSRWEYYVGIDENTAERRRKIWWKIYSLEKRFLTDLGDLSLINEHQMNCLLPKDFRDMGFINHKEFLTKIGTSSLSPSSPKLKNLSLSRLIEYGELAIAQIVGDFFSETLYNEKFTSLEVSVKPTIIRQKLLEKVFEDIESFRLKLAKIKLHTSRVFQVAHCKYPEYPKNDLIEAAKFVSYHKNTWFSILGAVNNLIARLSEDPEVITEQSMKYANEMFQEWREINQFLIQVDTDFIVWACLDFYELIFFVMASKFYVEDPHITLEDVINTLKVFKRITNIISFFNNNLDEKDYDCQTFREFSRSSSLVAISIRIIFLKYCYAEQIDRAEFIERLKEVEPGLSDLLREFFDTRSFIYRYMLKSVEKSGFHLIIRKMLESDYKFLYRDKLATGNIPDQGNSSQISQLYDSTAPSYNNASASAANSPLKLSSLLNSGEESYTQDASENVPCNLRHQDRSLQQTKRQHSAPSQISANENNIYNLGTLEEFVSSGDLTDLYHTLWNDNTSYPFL
Method in brief: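 E-scores (a modified Wilcoxon-Mann-Whitney statistic) were assigned by the Universal PBM Analysis Suite to every ungapped eight-base word pooled with its reverse complement. The input came from universal all-10-mer Agilent arrays made double-stranded by primer extension and probed with GST-tagged yeast transcription factors at about 100-200 nM. Fluorescent anti-GST detected bound protein, and masliner normalised the scans.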

Sequence	PBM E-score
GCGAATGA	0.172
AATCCAAC	-0.0551
ACGACCCT	-0.14
CACCTCTG	-0.259
AGGTGGTA	0.135
CCTATTAC	-0.104
CGCGATCA	0.103
AGACTCCC	-0.221
TGCCTCAA	0.107
ACCGCGGC	0.399
CAACCTGC	0.0438
ACTACCGC	-0.0625
AAGGCTCG	-0.352
CCCTTCGG	0.223
AGACTCCT	-0.238
ATCTAGGC	-0.205
TCACGAAA	0.0507
CGCCGGCC	0.32
ACGCTTCG	0.00401
CACTCCAC	-0.0684
CTGAGCAA	-0.16
CCTTGCAC	-0.0514
ATCCATGA	-0.183
CAGGACCA	-0.00068
CCGTGGCC	0.147

Sequence	PBM E-score
CTGAAAAG	-0.119
GAACGTTC	0.137
GAGCGTAC	-0.159
ATTGCCAC	0.00844
AGCGATTA	0.0475
AGCCGAAG	-0.0178
ATCCTAGG	-0.0164
CCTACAGA	-0.271
ACCCCGGT	0.186
CTGGAGCC	-0.0125
AATGGGGT	-0.00305
CGTAGTTC	-0.0922
GGTTAAAC	-0.0501
ATTTGGGC	-0.117
GCCGAGGC	0.278
CGAGCACG	0.0822
AGCGAGAT	0.0494
CTTAAGGC	-0.0846
ATCGCTTC	0.0282
GCAAACCA	-0.0644
GACGTCTC	-0.145
GAGTGAAA	0.00784
TCCAACCA	-0.111
ATCTAGGG	-0.252
ATCGTGCC	0.122

Sequence	PBM E-score
CAGATCTC	-0.0129
AGGCTCCC	-0.125
AGCACACC	-0.0132
AACCAAAC	-0.105
ACCAAAAA	0.172
ATTTAGGC	-0.0454
CGAGGATA	-0.0668
ATCGTGGA	0.0124
GAAGCGAC	0.133
AAGCCTAT	-0.091
CTGCAGGC	-0.094
GCTAAACA	-0.144
CTATGCCA	-0.283
GGTTATAA	0.0461
CAACCACG	-0.0699
AACCAAGG	-0.0461
GCCTCAAA	0.059
AAAGGCGT	-0.0847
CTAAGTGC	-0.127
CCATAGGG	-0.0909
GTCTGCGA	-0.13
AGATGATC	-0.0773
AGTCGTCG	-0.298
TGCAAGCA	-0.0791
CGTCATTC	0.165

Sequence	PBM E-score
ACCAGCTA	-0.142
ATTATCCC	0.185
ATGCGCAA	0.113
CGTGAAAG	-0.152
ACTGCCCA	-0.102
GTAGCTAA	-0.0587
CAGGCAGA	-0.195
CTAGCGGC	-0.078
GCCGCGTA	0.102
AGTAGGCC	0.00094
AACTGGTC	0.0148
AGAGGGTG	-0.181
CATGCTCA	-0.0827
AGCCTTCG	-0.0725
CATGCCTC	0.119
TTAACTAA	0.0269
AACCTGGG	-0.0982
GCAAAGTA	-0.0117
TCCCCACA	-0.257
AAGGTTGT	-0.0536
CCCGCACA	0.185
GCTTCCAA	-0.143
ACGGATCA	0.366
CCGGTATA	0.208
AAATTCTA	-0.215

Sequence	PBM E-score
GCTTTGCC	-0.0932
AGCGGCGA	0.197
AGTCAATA	-0.123
CTTCTATA	-0.229
CATACGAG	-0.0679
AATACCCT	0.0285
GCGCAGGA	0.00428
CCTTACCC	-0.178
AAAGCTTG	-0.188
GGGTTCTA	-0.0971
AAAAGCCC	0.073
AGTGAGGA	-0.091
ATTACCCG	0.24
ATGCTTCC	0.182
ACACGGCA	0.0539
CTCCGCTC	0.123
ACAGGCAG	-0.183
ACACCTGA	-0.127
GTTAGCGA	0.075
AAGGAATC	-0.0434
CACTGACA	-0.122
CATCAATG	0.0203
CTGTTCAC	-0.0853
CTCCGGTA	0.321
AAAGTCTG	-0.294

Sequence	PBM E-score
TCAGCTCA	0.0564
GTTGTGCA	-0.191
CCCACCCG	0.387
AACTTCGT	-0.0769
GTTTTTGA	0.038
ATGTACTC	-0.0746
ACCCAATG	-0.0796
ACGGCATC	0.138
GCCTTCTA	-0.163
AGCCTCAA	-0.18
ACCTTATC	0.0594
CCGGTGGC	0.264
AAGACGGT	-0.312
GCAATTTA	0.119
AGAGTGCC	-0.257
CGGCGGAG	0.372
CTAAGGGC	-0.294
TATGATAA	0.124
AAACGCAT	-0.257
TCGGGAAA	0.309
GTCTAATA	-0.336
ATAATCAA	0.0905
ATTTGACA	-0.176
CCATCCGA	0.245
ATGCGGCA	0.0388

Sequence	PBM E-score
GATCGCTA	0.0267
GCACTGGA	-0.129
AAAGTAGA	-0.237
CTCGACGA	-0.255
CCTGCTCG	-0.171
GCCAATCC	0.223
CTCAGGGA	-0.166
AGAAACCG	0.169
GTCTGATA	-0.122
GCAGGGGC	-0.0762
CGGATAAA	0.383
CCCGACTA	0.0876
TATTGGAA	-0.306
ACTTTACA	-0.00255
CAGCGCAC	-0.0543
ATTGCCGG	0.283
AGGCTCGG	0.0546
CGCTCTAC	-0.0833
CAAGCCTC	-0.14
TTCAGAAA	-0.195
AACAGGCC	-0.0503
ATGTAATG	0.073
CCAAACCC	0.0248
CGGGGCGC	0.215
ACGGCGGG	0.199

Sequence	PBM E-score
GGAGCAAA	0.0673
CACGGAGA	0.372
AACATGTT	-0.05
CGGGCACA	0.0163
CTCCAGGA	-0.249
GCCGATAA	0.0452
CGACCGCC	0.0233
TAAAATCA	-0.00537
ACCTCAAT	-0.101
TAATTGGA	-0.0764
AAGTTTCG	0.011
AAGTGATA	-0.0901
AGTACTTG	-0.162
CGAATATA	0.105
CGATCAGA	-0.184
CTAACAAC	0.0288
ACGTATAG	-0.206
AACTTACC	-0.0181
GACTAAAA	-0.0119
AGTCCCTA	-0.202
GGGTCAAA	0.0962
ATGCGCAG	-0.0838
ATAGGATA	-0.00772
GTTTCCAA	-0.274
ACCAATTC	0.0992

Sequence	PBM E-score
CGGCTCCA	0.21
ATTCCGCC	0.417
CAAACAGA	-0.00446
CCAGTGCG	-0.0932
CATGTTGC	-0.11
ATCTTTAG	0.0683
CCACTCGG	0.135
TATACGCA	-0.0511
AGTCGCGC	0.193
CCGATGAC	0.166
CGTCCTGC	-0.0454
CGATGACC	0.099
ACAGCGAT	-0.121
ATGATAAG	0.0887
AATAAGGT	0.0693
ACAAGCGT	-0.231
ATCTAGGA	-0.0865
CGCGAAAC	-0.00744
CGTACGTA	-0.265
